Measurements: article PMC10726135
The other results are listed elsewhere or left out. At the low end of the ranking the order means little. Measured with an extract: partners may take part in the binding.

The sequences below were run against T1, HNF4alpha8 (COS-7 nuclear extract) (UniProt P41235-5) (assay: protein-binding microarray). Conditions: COS-7 nuclear extract on double-stranded Agilent 4x180k PBM; binding buffer, salt, pH and temperature not given; high values mean tight binding; double strand, one strand shown; sequences stand for … in …GCCTAGGGAGATTAGAGTATCGGTCGA.
T1 sequence: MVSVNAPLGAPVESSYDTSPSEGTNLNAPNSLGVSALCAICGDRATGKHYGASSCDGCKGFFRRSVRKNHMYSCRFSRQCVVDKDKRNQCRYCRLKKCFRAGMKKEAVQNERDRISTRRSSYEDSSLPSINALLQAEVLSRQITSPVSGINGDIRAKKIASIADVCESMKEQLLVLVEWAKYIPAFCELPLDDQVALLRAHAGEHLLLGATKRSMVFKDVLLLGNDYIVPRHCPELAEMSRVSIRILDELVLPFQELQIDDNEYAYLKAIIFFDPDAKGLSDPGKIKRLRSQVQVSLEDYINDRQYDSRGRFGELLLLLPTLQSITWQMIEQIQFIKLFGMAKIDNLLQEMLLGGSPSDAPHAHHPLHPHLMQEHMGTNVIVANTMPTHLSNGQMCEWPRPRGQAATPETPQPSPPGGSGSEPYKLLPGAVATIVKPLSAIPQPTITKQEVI

| Sequence | binding signal (log2 normalized intensity) |
| --- | --- |
| TATTTCACCCCAGCAAACAGGTCCTGCTGG | -1.22 |
| TCAATTATCACCACACAGCACGTAATAGTT | -0.1 |
| AACAGCACAAGCAATGGCTGGGTCTAAGGG | -0.936 |
| ATTTCTGAGAGAGAAAGAGACAGAGAGAGA | -1.41 |
| GCAAAGATCACCTGGTGGCCATCAAGCAGA | -1.36 |
| GACCTTCGGCCTCAATTATAACTCATGTTC | 3.98 |
| TGGACTTTCAACTGCAGGGGGGTGGGCACC | 2.19 |
| AATCTGGCTGCAGAGTCCAAGATGCTGTCT | 1.82 |
| AGAGCAAAGGTTACTGCAGAGAAGAAGCTT | 1.46 |
| TCTTGCTTCGCTCTCTTCTGGTGATCAAAC | -0.074 |
| GCTGGGTATACTGACTAGGACAGAGCAGAT | -1.02 |
| GGGTAGGCAGACAGGTTGGAGACGCAGAGA | -1.22 |
| CGAGCTGAGGCCAGACAGGGGGGCGCCTAC | -1.25 |
| GTCAGGGCTAGGCTGATAAGGAGGGTAACA | -1.32 |
| ACTTCAGCCTTTGAGAAGCAGGAGCATGGG | -1.36 |
| GTCTCTGCTCCTAAAATTATGCCATTCTTT | -0.139 |
| GAAGTCCAGTAGCTCAATCAAGGTTCACTG | 2.02 |
| GAGTTATTTCATAGACTGTCCCTCAGTGTG | 1.89 |
| ACAGAGGCAGTGGGACAATGAAGCCTAAAT | -1.27 |
| TCTTTCCACTTGGGCTTCCTCATCTGTTTA | 1.27 |

| Sequence | binding signal (log2 normalized intensity) |
| --- | --- |
| GGAATGCAGTGGCGCAATCTCAGCTCAATC | -1.36 |
| CCCTTTTTCTGTAAAGCTTTATTTTGGGGC | 1.31 |
| AGATTGCCACCTTGGTGAGAGATTAAACAT | -0.649 |
| AAGGAGGCAGTAAGATAAGGAGGTAGAGTC | -1.33 |
| GCCACTGAACTTTCACTGCCTATCTCCTAT | 0.18 |
| CCTGACATTCTTGAGCTGCTAAACCAACAC | -1.17 |
| AGCATATTTGGCCACATCCTGTCTCCTTTA | 1.11 |
| CCCTGTTTAGAATTCTGCCTCCCCCACCCC | 6.24 |
| TCCCAGATGCTGACCATATTCCAAATTCCA | 0.564 |
| CAAACCGAGATCAAGGGACAGAGATAACTG | -1.36 |
| GTGGCCTTTGTCCTAGTGCATGCTGGGAGT | 1.55 |
| GAATCTGGACAGTGTAAGATAAAAATCAGA | -1.33 |
| CCAAGCAGTGATATTCTCTCGTCACCTCCA | -1.39 |
| CTCCACTGGGAATGACATTTTGGACTACTT | 2 |
| CATTCAGATAAATGGTGTAGAGGCCAGAGG | -0.495 |
| TTCCCTCCCTCCCAGTACAAAGTTCACTTT | 7.26 |
| TGCCCTTTGCCTGGTGATCTTTGTTAGACC | 3.02 |
| AGAAGCCACTGCGACCTTTGCCCTCCCTAA | 8.33 |
| AAGGCAAGGGTCAAGATGTCTCAAGATATC | 1.06 |
| ATAAGAAGGGGTCAGACCAGACAGCACCTC | -1.25 |
